Results: a collection of fitness landscapes (doi:10.1016/j.celrep.2020.107928)
Whole data set: some 81,000 sequences, median “one-hybrid fitness for binding parS DNA” near -0.17, cut for the highest 2% near 0.51. This is one part of the list.

B1: Caulobacter ParB omega fusion; a variant is named by its letters at X, in order, B8GW30 (parent)
chain: MESVVVGEPGMSEGRRGLGRGLSALLGEVDAAPAQAPGEQLGGSREAPIEILQRNPDQPRRTFREEDLEDLSNSIREKGVLQPILVRPSPDTAGEYQIVAGERAWRAAQRAGLKTVPIMVRELDDLAVLEIGIIENVQRADLNVLEEALSYKVLMEKFERTQENIAQTIGKSXSHVANXMRLLXLPDEVQSYLVSGELTAXHARAIAAAADPVALAKQIIEGGLSVRETEALARKAPNLSAGKSKGGRPPRVKDTDTQALESDLSSVLGLDVSIDHRGSTGTLTITYATLEQLDDLCNRLTRGI

Variants of: B1
Experiment: one-hybrid fitness for binding parS DNA (scaled: cognate 1, non-cognate 0); higher = stronger binding
Conditions: with parS DNA site
Summary of the method: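 Pre- and post-selection plasmids were Illumina-sequenced, three replicate libraries were pooled, and any variant with under 10 reads was removed. The libraries were Caulobacter ParB with four specificity codons randomised, selected in E. coli USO through a HIS3 reporter whose site is 19 bp from the promoter. Cells grew 48 hours at 37°C on M9 without histidine, with 0.1 mM IPTG and 5 mM 3-AT. Fitness is the log change in variant-to-wild-type read ratio, rescaled against cognate and non-cognate.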

| Variant | one-hybrid fitness for binding parS DNA |
| --- | --- |
| MTVC | ≤ 0.2 |
| SDNT | ≤ 0.2 |
| VTFR | ≤ 0.2 |
| LFHG | ≤ 0.2 |
| WDNT | ≤ 0.2 |
| EHST | ≤ 0.2 |
| LHKV | ≤ 0.2 |
| RYLS | 0.986 |
| DDMR | ≤ 0.2 |
| YDEG | ≤ 0.2 |
| DYRI | ≤ 0.2 |
| VKMN | ≤ 0.2 |
| GGKL | ≤ 0.2 |
| QRCL | ≤ 0.2 |
| MLQF | ≤ 0.2 |
| QGCR | ≤ 0.2 |
| RQCG | 0.97 |
| KRSQ | ≤ 0.2 |
| ALDM | ≤ 0.2 |
| SSEE | ≤ 0.2 |
| WIKS | ≤ 0.2 |
| ALGA | ≤ 0.2 |
| STWC | ≤ 0.2 |
| AIVS | ≤ 0.2 |
| DASW | ≤ 0.2 |
| RSIS | 0.887 |

| Variant | one-hybrid fitness for binding parS DNA |
| --- | --- |
| NHGR | ≤ 0.2 |
| STRQ | ≤ 0.2 |
| GLVC | ≤ 0.2 |
| SYKL | ≤ 0.2 |
| SETF | ≤ 0.2 |
| TMAC | ≤ 0.2 |
| PVVW | ≤ 0.2 |
| PSRG | ≤ 0.2 |
| KAVK | ≤ 0.2 |
| NVDR | ≤ 0.2 |
| VFTR | ≤ 0.2 |
| RHCW | ≤ 0.2 |
| ERNM | ≤ 0.2 |
| FGNT | ≤ 0.2 |
| RAPK | ≤ 0.2 |
| VWTS | ≤ 0.2 |
| VVSC | ≤ 0.2 |
| NHFT | ≤ 0.2 |
| AQAL | ≤ 0.2 |
| WRDF | ≤ 0.2 |
| YLEG | ≤ 0.2 |
| ALPM | ≤ 0.2 |
| NEAP | ≤ 0.2 |
| QGYV | ≤ 0.2 |
| QYCT | ≤ 0.2 |
| HGER | ≤ 0.2 |

| Variant | one-hybrid fitness for binding parS DNA |
| --- | --- |
| HSLD | ≤ 0.2 |
| LMWL | ≤ 0.2 |
| WRVS | ≤ 0.2 |
| GTGR | ≤ 0.2 |
| SLNS | ≤ 0.2 |
| AAHH | ≤ 0.2 |
| CNYR | ≤ 0.2 |
| TLFA | ≤ 0.2 |
| MRAT | ≤ 0.2 |
| PMQC | ≤ 0.2 |
| LWMR | ≤ 0.2 |
| GLSK | ≤ 0.2 |
| TSCI | ≤ 0.2 |
| EAHG | ≤ 0.2 |
| ANVV | ≤ 0.2 |
| DDRC | ≤ 0.2 |
| CELS | ≤ 0.2 |
| YKTC | ≤ 0.2 |
| CLDW | ≤ 0.2 |
| VSDI | ≤ 0.2 |
| PNLA | ≤ 0.2 |
| QMMS | ≤ 0.2 |
| CYVC | ≤ 0.2 |
| PHYK | ≤ 0.2 |
| WTSR | ≤ 0.2 |
| VLQT | ≤ 0.2 |

| Variant | one-hybrid fitness for binding parS DNA |
| --- | --- |
| DWSL | ≤ 0.2 |
| TSAI | ≤ 0.2 |
| PPCY | ≤ 0.2 |
| NDIR | ≤ 0.2 |
| KQKL | ≤ 0.2 |
| IGEG | ≤ 0.2 |
| ILMR | ≤ 0.2 |
| VECR | ≤ 0.2 |
| HCRA | ≤ 0.2 |
| NQYS | ≤ 0.2 |
| ACAM | ≤ 0.2 |
| GMRS | ≤ 0.2 |
| QYTG | ≤ 0.2 |
| NLGG | ≤ 0.2 |
| WLKD | ≤ 0.2 |
| PNQF | ≤ 0.2 |
| VFAR | ≤ 0.2 |
| YLVG | ≤ 0.2 |
| YVQT | ≤ 0.2 |
| YIPY | ≤ 0.2 |
| TWAS | ≤ 0.2 |
| RDHN | ≤ 0.2 |
| VIVY | ≤ 0.2 |
| VLGF | ≤ 0.2 |
| QERM | ≤ 0.2 |
| APIF | ≤ 0.2 |

| Variant | one-hybrid fitness for binding parS DNA |
| --- | --- |
| DGAS | ≤ 0.2 |
| DMTI | ≤ 0.2 |
| HAIC | ≤ 0.2 |
| FKRW | ≤ 0.2 |
| AFSF | ≤ 0.2 |
| EYPR | ≤ 0.2 |
| PNIG | ≤ 0.2 |
| LEEY | ≤ 0.2 |
| VLTE | ≤ 0.2 |
| PHHS | ≤ 0.2 |
| PHAS | ≤ 0.2 |
| EPCT | ≤ 0.2 |
| PQWP | ≤ 0.2 |
| GIHT | ≤ 0.2 |
| KFWS | ≤ 0.2 |
| QEGP | ≤ 0.2 |
| QRGN | ≤ 0.2 |
| HPHA | ≤ 0.2 |
| RYAS | 0.917 |
| YSAV | ≤ 0.2 |
| DTLP | ≤ 0.2 |
| TIHW | ≤ 0.2 |
| GLHY | ≤ 0.2 |
| KTTR | ≤ 0.2 |
| YNTS | ≤ 0.2 |
| ERYF | ≤ 0.2 |

| Variant | one-hybrid fitness for binding parS DNA |
| --- | --- |
| LSST | ≤ 0.2 |
| LATS | ≤ 0.2 |
| GCTF | ≤ 0.2 |
| NKST | ≤ 0.2 |
| REHK | ≤ 0.2 |
| RFYF | ≤ 0.2 |
| CAEL | ≤ 0.2 |
| WRTF | ≤ 0.2 |
| VIAK | ≤ 0.2 |
| PNMV | ≤ 0.2 |
| ALHT | ≤ 0.2 |
| ANWC | ≤ 0.2 |
| FARA | ≤ 0.2 |
| KTET | ≤ 0.2 |
| CYRR | ≤ 0.2 |
| DLMG | ≤ 0.2 |
| RIQK | ≤ 0.2 |
| YNRS | ≤ 0.2 |
| RCEH | 0.244 |
| RGPS | 0.336 |
| RSNW | 0.218 |
| FNTS | ≤ 0.2 |
| HSLT | ≤ 0.2 |
